Data from article PMC4336329 (PLoS ONE, 2015).
Among all 310,000 compounds or so, about 14,000 (4.5%) showed an effect of 50% or more. Effects have a minus sign here. The list shows a part of the results.

Target: human ether-à-go-go-related gene (hERG) potassium channel (human, UniProt Q12809)
Experiment: primary screen, population patch clamp on CHO cells stably expressing hERG
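Also: peak tail current of the secondary pulse compared with the same well before compound.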

Sequence of human ether-à-go-go-related gene (hERG) potassium channel (Q12809 whole entry, looked up): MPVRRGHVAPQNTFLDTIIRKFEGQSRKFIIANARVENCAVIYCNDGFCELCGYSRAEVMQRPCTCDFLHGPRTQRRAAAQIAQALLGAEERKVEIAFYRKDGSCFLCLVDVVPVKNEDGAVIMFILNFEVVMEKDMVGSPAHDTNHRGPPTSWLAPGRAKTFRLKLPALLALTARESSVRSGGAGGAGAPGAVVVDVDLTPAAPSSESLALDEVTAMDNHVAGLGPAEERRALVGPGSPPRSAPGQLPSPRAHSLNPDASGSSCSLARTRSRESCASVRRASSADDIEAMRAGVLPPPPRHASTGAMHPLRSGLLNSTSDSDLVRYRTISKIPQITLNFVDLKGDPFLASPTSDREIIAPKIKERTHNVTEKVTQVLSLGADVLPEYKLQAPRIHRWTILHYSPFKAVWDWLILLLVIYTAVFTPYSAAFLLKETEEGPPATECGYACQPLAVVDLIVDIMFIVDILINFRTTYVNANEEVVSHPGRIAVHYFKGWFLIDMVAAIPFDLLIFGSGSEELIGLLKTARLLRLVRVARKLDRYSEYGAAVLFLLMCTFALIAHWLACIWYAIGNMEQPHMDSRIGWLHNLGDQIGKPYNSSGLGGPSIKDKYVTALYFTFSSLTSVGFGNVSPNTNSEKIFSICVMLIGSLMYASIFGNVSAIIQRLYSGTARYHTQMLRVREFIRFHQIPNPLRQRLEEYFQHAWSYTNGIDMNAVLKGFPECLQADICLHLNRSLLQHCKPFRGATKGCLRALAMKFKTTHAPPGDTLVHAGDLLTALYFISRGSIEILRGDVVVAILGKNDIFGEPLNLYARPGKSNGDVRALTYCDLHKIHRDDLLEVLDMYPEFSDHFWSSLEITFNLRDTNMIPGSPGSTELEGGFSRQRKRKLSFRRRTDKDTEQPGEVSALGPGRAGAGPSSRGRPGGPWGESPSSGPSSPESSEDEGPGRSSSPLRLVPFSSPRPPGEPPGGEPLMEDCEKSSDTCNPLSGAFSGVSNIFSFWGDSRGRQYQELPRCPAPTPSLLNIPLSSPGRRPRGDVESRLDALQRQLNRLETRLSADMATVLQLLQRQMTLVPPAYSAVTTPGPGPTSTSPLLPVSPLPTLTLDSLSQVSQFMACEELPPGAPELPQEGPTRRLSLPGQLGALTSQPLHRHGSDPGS

| Structure (SMILES) | hERG current change (%, negative = inhibition) at 10uM |
| --- | --- |
| O=P(Nc1c(Cl)cccc1Cl)(c1ccccc1)c1nc2c(s1)CCCC2 (centres unmarked) | 10% |
| Cc1cccc(NC(=O)CCN2C(=O)c3ccccc3S2(=O)=O)c1C | -13.1% |
| Cc1cccc(C)c1NC(=O)NCCCN1CCN(c2ccccc2)CC1 | -41.1% |
| CSc1ccc(S(=O)(=O)NCCSC(C)(C)C)cc1 | -10.9% |
| CN(C)S(=O)(=O)c1ccc(C(=O)NCCOc2ccccc2)cc1 | -17.2% |
| O=C(NCc1cccc(Br)c1)C1CC(c2ccccc2[N+](=O)[O-])=NO1 (centres unmarked) | -42% |
| CC(=O)Nc1ccc(OCC(O)Cn2nc(C)c(C)c2C)cc1 (centres unmarked) | 11.5% |
| CC1CCN(c2ccc3nnc(CCC(=O)NCCCOC(C)C)n3n2)CC1 | 2.68% |
| O=C(NC1CCCCCC1)c1cccc(COCC(F)(F)F)c1 | -14% |
| O=C1N(CCCN2C(=O)C3(OCCO3)c3ccccc32)c2ccccc2C12OCCO2 | -1.41% |
| CCc1ccccc1NC(=O)Nc1cc(F)ccc1F | -0.245% |
| CC1CCN(C(=O)Cn2c(SCC(=O)Nc3nccs3)nc3ccccc32)CC1 | -18.8% |
| COc1ccccc1N1CCN(/N=C/c2cc(Br)ccc2F)CC1 | 9.43% |
| CC(C)n1c(N2CCN(CC(=O)NCc3cccs3)CC2)nc2ccccc21 | -60.8% |
| CC(C)C(OC(=O)c1cccs1)C(=O)NCc1ccccc1 (centres unmarked) | 4.34% |
| CC1(C)NC(=O)N(CC(=O)N2CCN(S(=O)(=O)c3ccccc3C(F)(F)F)CC2)C1=O | 14% |
| COC(=O)C1=C(C)N(CCCC(=O)O)C(=O)NC1c1cccc(OC)c1 (centres unmarked) | 3.7% |
| COc1ccccc1C(=O)N1CC2(C)CC1CC(C)(C)C2 (centres unmarked) | 6.53% |
| Cc1ccc(-n2nnnc2-c2cnoc2-c2cccc(F)c2)cc1 | -13.6% |
| COc1cccc(N2CCN(C(=S)Nc3ccccc3)CC2)c1 | 19% |
| Cc1ccnc(NC(=O)Cc2c(F)cccc2Cl)c1 | 0.992% |
| CCC1(C)Cc2c(sc3nc(NC)n(C)c(=O)c23)CO1.Cl (centres unmarked) | 5.53% |
| COc1cc(CN2CCCCCC2)cc([N+](=O)[O-])c1O | 10.1% |
| CC(Oc1ccc(C(=O)c2ccc(F)cc2)cc1)C(=O)N1CCOCC1 (centres unmarked) | 10% |
| Cc1cc(C)c(C#N)c(SCc2nnc(-c3ccccc3[N+](=O)[O-])o2)n1 | 3.4% |
| CCCc1nc(NC(=O)c2ccccc2)nc(NC(=O)c2ccccc2)n1 | -48.6% |
